Laboratory results as given in PMC4336329 (PLoS ONE, 2015).
Among all 310,000 compounds or so, about 2,200 (0.71%) showed an effect of 50% or more. The effect is printed as a negative number. The list shows a part of the results.

target: human ether-à-go-go-related gene (hERG) potassium channel (human, UniProt Q12809); assay: primary screen, population patch clamp on CHO cells stably expressing hERG
Sequence (Q12809 whole entry, looked up): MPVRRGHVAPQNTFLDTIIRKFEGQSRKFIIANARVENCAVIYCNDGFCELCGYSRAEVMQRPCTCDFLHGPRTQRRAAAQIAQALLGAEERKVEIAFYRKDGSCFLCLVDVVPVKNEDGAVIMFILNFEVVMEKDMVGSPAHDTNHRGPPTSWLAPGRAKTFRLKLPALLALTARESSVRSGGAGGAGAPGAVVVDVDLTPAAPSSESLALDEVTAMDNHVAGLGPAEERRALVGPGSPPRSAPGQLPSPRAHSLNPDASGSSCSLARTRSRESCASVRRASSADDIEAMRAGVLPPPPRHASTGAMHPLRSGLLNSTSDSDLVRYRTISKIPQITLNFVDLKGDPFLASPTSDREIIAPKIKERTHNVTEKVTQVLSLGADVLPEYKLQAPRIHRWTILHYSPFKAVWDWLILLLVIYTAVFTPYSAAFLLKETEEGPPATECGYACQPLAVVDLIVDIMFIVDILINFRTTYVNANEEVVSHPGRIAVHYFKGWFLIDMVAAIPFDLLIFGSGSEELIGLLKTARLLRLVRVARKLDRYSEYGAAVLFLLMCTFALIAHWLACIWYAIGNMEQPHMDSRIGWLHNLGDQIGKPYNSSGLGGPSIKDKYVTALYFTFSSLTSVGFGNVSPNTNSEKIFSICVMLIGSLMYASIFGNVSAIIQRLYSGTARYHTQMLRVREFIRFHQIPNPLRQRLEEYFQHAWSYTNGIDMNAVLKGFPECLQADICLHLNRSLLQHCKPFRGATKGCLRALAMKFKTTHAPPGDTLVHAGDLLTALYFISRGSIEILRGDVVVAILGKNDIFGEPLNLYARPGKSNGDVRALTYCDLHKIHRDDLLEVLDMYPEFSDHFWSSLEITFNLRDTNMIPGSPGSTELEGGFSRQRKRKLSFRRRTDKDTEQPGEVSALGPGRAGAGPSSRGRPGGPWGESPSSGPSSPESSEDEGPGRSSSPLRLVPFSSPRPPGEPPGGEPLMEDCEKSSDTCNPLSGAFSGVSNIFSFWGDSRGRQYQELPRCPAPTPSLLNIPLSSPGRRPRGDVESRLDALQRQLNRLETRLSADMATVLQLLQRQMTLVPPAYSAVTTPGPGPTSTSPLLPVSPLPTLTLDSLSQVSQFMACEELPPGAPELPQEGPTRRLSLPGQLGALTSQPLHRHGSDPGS

Compound | hERG current change (%, negative = inhibition) at 1uM [%]
CC(C)c1ccc(CN2CCSCC2)cc1 | 12.3
COc1ccc(N2C(=O)CC(Sc3nnc(-c4ccccc4)o3)C2=O)cc1 (stereo not drawn) | -17.1
OCCNc1nc(N2CCOCC2)nc(N2CCOCC2)n1 | 3.64
Cc1c(C(=O)O)oc2ccc(S(=O)(=O)NC3CCCCCCC3)cc12 | 17.9
C/C(Cl)=C\C[N+](C)(C)CC(=O)OCCc1ccccc1.[Br-] | 5.89
CCOC(=O)C1CCCN(C(=O)c2cc3c(=O)n(C)c4ccccc4c3n2C)C1 (stereo not drawn) | 6.9
OC(CC#CCN1CCCCC1)(c1ccccc1)c1ccccc1 | 11
O=C(Nc1ncnc2sc3c(c12)CCCCC3)c1ccccc1 | -1.57
COCCCNCC(=O)Nc1ccc(OC(F)(F)F)cc1.Cl | -1.34
Cc1cccc(NC(=O)NCc2ccc3c(c2)cc(C)n3C)c1 | 8.52
CCN(CC)S(=O)(=O)c1ccc(C)c(NC(=O)Cn2cnc3cc([N+](=O)[O-])ccc3c2=O)c1 | -6.83
COc1cccc(OC)c1C(=O)Nc1cccnc1 | -2.82
Cc1ccc(S(=O)(=O)N2CCCCC2)cc1NC(=O)CSc1nccn1C | -1.66
C#CCOc1ccc(Br)cc1/C=N/O | 4.51
COc1cc(-c2nnc(Sc3ccc(C(F)(F)F)cc3[N+](=O)[O-])o2)cc(OC)c1OC | 7.1
O=C(COc1cccnc1[N+](=O)[O-])Nc1ccc2c(c1)OC(F)(F)O2 | -1.61
Cc1csc(NC(=O)c2ccco2)c1C(=O)c1ccccc1 | 9.2
COCCN1C(=O)N[C@@H](c2cccc(C(F)(F)F)c2)C(C(=O)OC)=C1C | 16.1
Cc1c(C#N)c(=O)oc2ccc3ccccc3c12 | 10.6
O=c1c2cc(Br)ccc2[nH]c(=S)n1Cc1ccccc1 | 15.4
CCOC(=O)C1CCN(C(=O)CNC(=O)OC(C)(C)C)CC1 | 9.38
COc1ccc(S(=O)(=O)N2CCc3ccccc32)cc1C(=O)N1CCN(C=O)CC1 | 13.2
C/C(CC(=O)NCc1ccco1)=N\NC(=O)Cc1cccc2ccccc12 | 5.84

Compound | hERG current change (%, negative = inhibition) at 1uM [%]
CC(C)(C)c1cc2cccnc2n1Cc1ccccc1 | 8.69
COc1ccc(OC)c(N(CC(=O)N2CCCCC2)S(=O)(=O)c2ccc(OC)c(OC)c2)c1 | 16.5
Cc1cccc(C)c1NC(=O)C[n+]1cc(-c2ccccc2)n2c1CCC2.[Cl-] | 8.62
Cc1ccc(CNC(=O)C(=O)NCC2OCCN2S(=O)(=O)c2ccc(Br)cc2)cc1 (stereo not drawn) | 8
CCC(=O)c1cc(-c2nc3ccccc3n2C)n(C)c1 | 13.5
O=C(NNC(=O)c1ccc(S(=O)(=O)N2CCOCC2)cc1)c1ccccc1 | 10.9
Cc1ccc(O)c(C(=O)c2cnc3c(c2)c(=O)n(C)c(=O)n3C)c1 | 15.9
CNC(=O)c1cccc(N2CCCC2=O)c1 | 13.5
CCCCn1c(=O)c(CCC(=O)OC(C)C(=O)Nc2cccc(Cl)c2Cl)nc2ccccc21 (stereo not drawn) | 9.5
COc1cccc(NC(=O)Cn2c(=O)c3c(ncn3Cc3ccccc3)n(Cc3ccccc3)c2=O)c1 | 3.04
Cc1ccc(N2CC(C(=O)NC3=NCCS3)CC2=O)cc1C (stereo not drawn) | -2.4
C#CC1(NC(=O)NC(=O)c2c(F)cccc2F)CCCCC1 | 13.7
O=C(N/N=C/c1cn(-c2cccs2)nc1-c1ccccc1)c1ccccc1Br | 13.4
Cc1ccc(-c2nnc(OCc3nc4ccccc4n3C)c3ccccc23)cc1 | 4.92
CCCc1cc(N2CCCC(C(=O)NCC)C2)n2ncnc2n1 (stereo not drawn) | -2.06
Cc1cc(NC(=O)c2ccc(S(=O)(=O)N(C)C)cc2)no1 | 12.3
CC(Oc1ccc2c3c(c(=O)oc2c1)CCC3)C(=O)NCc1ccccn1 (stereo not drawn) | 15.9
CCCOc1cccc(-c2nnc(N)s2)c1 | 6.45
O=C(Nc1ccncc1)c1cccc(S(=O)(=O)N2CCOCC2)c1 | -19.6
Cc1cc(NC(=O)c2sccc2C)n(-c2nc3ccccc3[nH]2)n1 | 12.6
COC(=O)c1ccc(C2c3[nH]c4ccccc4c3C[C@H]3C(=O)N(C4CCN(Cc5ccccc5)CC4)CC(=O)N23)cc1 (stereo partly drawn) | 7.9
OCCOc1ccc(CN2CCCC(N3CCN(c4ccc(F)cc4)CC3)C2)cc1 (stereo not drawn) | -39.5
